Our source for the cytotoxicity call and growth inhibition call values is the antibiotic and cytotoxicity screens of Wong et al. (2023).

This is one part of the list.

In one test the test system is HSkMC. As to the kind of experiment: cytotoxicity call (relative viability < 0.9). Conditions: 10 µM.
For the next test, the system named is S. aureus RN4220. As to the kind of experiment: growth inhibition call (relative growth <= 0.2). Conditions: 50 µM.

As to `Cc1noc(C)c1NC(=O)Nc1ccc2c(c1)CC(=O)N([C@@H](C)CO)C[C@@H](C)[C@H](CN(C)C(=O)NC(C)C)O2`, in the test with HSkMC, the cytotoxicity call was “inactive”. The growth inhibition call in the test on S. aureus RN4220 was “inactive”.
With `C[C@H](CO)N1C[C@H](C)[C@@H](CN(C)Cc2ccc(Oc3ccccc3)cc2)Oc2ccc(NC(=O)Nc3ccc4c(c3)OCO4)cc2C1=O`, the cytotoxicity call with HSkMC is “inactive”. In addition, the growth inhibition call in the test on S. aureus RN4220 was “inactive”.
Take `CN(C)CC#Cc1ccc([C@@H]2[C@H]3CN(C(=O)c4cccnc4)CC(=O)N3[C@H]2CO)cc1`: in the test with HSkMC, the cytotoxicity call was “inactive”. In addition, the growth inhibition call in the test with S. aureus RN4220 was “inactive”.
On to `COc1ccc(NC(=O)Nc2ccc3c(c2)C(=O)N([C@H](C)CO)C[C@H](C)[C@@H](CN(C)S(=O)(=O)c2ccc(F)cc2)OCCCC[C@@H](C)O3)cc1`, for which the cytotoxicity call in the test on HSkMC was “inactive”. Also, the growth inhibition call in the test on S. aureus RN4220 is “inactive”.
As to `C[C@@H]1CN([C@@H](C)CO)C(=O)Cc2cc(NC(=O)Nc3ccc(C(F)(F)F)cc3)ccc2O[C@H]1CN(C)Cc1ccc(C(=O)O)cc1`, the cytotoxicity call in the test with HSkMC was “inactive”. The growth inhibition call in the test with S. aureus RN4220 is “inactive”.
With `C[C@H]1CN([C@@H](C)CO)C(=O)c2cccc(NC(=O)Nc3ccc(C(F)(F)F)cc3)c2O[C@H]1CN(C)Cc1ccc(C(=O)Nc2ccccc2N)cc1`, the cytotoxicity call in the test on HSkMC was “inactive”. The growth inhibition call with S. aureus RN4220 is “inactive”.
Consider `C[C@H]1CN([C@@H](C)CO)S(=O)(=O)c2ccc(C#Cc3ccccc3)cc2O[C@@H]1CN(C)C(=O)Cc1ccccn1`, for which the cytotoxicity call in the test with HSkMC was “inactive”. Further, the growth inhibition call in the test with S. aureus RN4220 was “inactive”.
With `C[C@H](CO)N1C[C@H](C)[C@H](CN(C)Cc2ccc(-c3ccccc3)cc2)Oc2ccc(NC(=O)C3CC3)cc2C1=O`, in the test with HSkMC, the cytotoxicity call was “inactive”. Besides, the growth inhibition call with S. aureus RN4220 is “inactive”.
For the molecule `COCCNC(=O)C[C@H]1CC[C@@H]2[C@H](COC[C@H](O)CN2S(=O)(=O)c2ccccc2C)O1`, in the test with HSkMC, the cytotoxicity call is “inactive”. The growth inhibition call with S. aureus RN4220 is “inactive”.
With `Cc1noc(C)c1NC(=O)Nc1ccc2c(c1)C(=O)N([C@H](C)CO)C[C@H](C)[C@H](CN(C)Cc1ccc(Cl)c(Cl)c1)OCCCC[C@H](C)O2`, the cytotoxicity call in the test with HSkMC was “inactive”. Besides, the growth inhibition call with S. aureus RN4220 is “inactive”.
Take `COc1ccc(CNC(=O)C[C@@H]2CC[C@@H]3[C@@H](COc4ccc(NC(=O)C5CC5)cc4C(=O)N3C)O2)cc1`: the cytotoxicity call with HSkMC is “inactive”. Also, in the test with S. aureus RN4220, the growth inhibition call was “inactive”.
Consider `C[C@H]1CN([C@@H](C)CO)C(=O)c2c(c3ccccc3n2C)-c2ccccc2CO[C@@H]1CN(C)C(=O)c1ccc(F)cc1`, for which the cytotoxicity call in the test on HSkMC was “inactive”. Besides, the growth inhibition call in the test with S. aureus RN4220 was “inactive”.
Regarding `C[C@@H]1CCCCO[C@H](CN(C)C(=O)C2CCCCC2)[C@H](C)CN([C@H](C)CO)C(=O)c2cc(NS(=O)(=O)c3cccs3)ccc2O1`, in the test on HSkMC, the cytotoxicity call is “inactive”. For the same molecule, the growth inhibition call in the test with S. aureus RN4220 was “inactive”.
Turning to `C[C@H](CO)N1C[C@H](C)[C@@H](CN(C)S(=O)(=O)c2ccc(Cl)cc2)Oc2ccc(NC(=O)Cn3cnnn3)cc2C1=O`, in the test on HSkMC, the cytotoxicity call was “inactive”. In addition, the growth inhibition call in the test with S. aureus RN4220 is “inactive”.
For the molecule `C[C@H]1CCCCO[C@H](CN(C)C(=O)CCC(F)(F)F)[C@@H](C)CN([C@@H](C)CO)C(=O)c2cc(NS(=O)(=O)c3ccc(F)cc3)ccc2O1`, in the test with HSkMC, the cytotoxicity call is “inactive”. For the same molecule, the growth inhibition call in the test with S. aureus RN4220 is “inactive”.
In the case of `COc1ccc(CN(C)C[C@H]2OCCCC[C@H](C)Oc3ccc(NC(=O)Cc4ccccc4)cc3C(=O)N([C@H](C)CO)C[C@H]2C)cc1`, the cytotoxicity call with HSkMC is “inactive”. Moreover, the growth inhibition call in the test on S. aureus RN4220 was “inactive”.
In the case of `O=C(C[C@@H]1CC[C@H](NC(=O)CN2CCOCC2)[C@H](CO)O1)NCCc1ccncc1`, the cytotoxicity call with HSkMC is “inactive”. Besides, the growth inhibition call in the test on S. aureus RN4220 is “inactive”.
For the molecule `C[C@H](CO)N1C[C@H](C)[C@H](CN(C)Cc2ccc(C(F)(F)F)cc2)Oc2ccc(NC(=O)C3CCCCC3)cc2CC1=O`, the cytotoxicity call with HSkMC is “inactive”. In the test with S. aureus RN4220, the growth inhibition call is “inactive”.
As to `CC(C)(C)[S@@](=O)N1Cc2cc(C(=O)NCC(F)(F)F)nc(-c3cccc(-c4cccc(F)c4)c3)c2[C@H]1CCO`, in the test with HSkMC, the cytotoxicity call is “inactive”. The growth inhibition call with S. aureus RN4220 was “inactive”.
Take `C[C@H]1CCCCO[C@H](CN(C)S(=O)(=O)c2cn(C)cn2)[C@@H](C)CN([C@@H](C)CO)C(=O)c2cc(NC(=O)CCCN(C)C)ccc2O1`: the cytotoxicity call in the test on HSkMC is “inactive”. Besides, the growth inhibition call in the test on S. aureus RN4220 is “inactive”.
As to `C[C@@H](N)c1cnn(-c2ccccc2F)c1`, the cytotoxicity call in the test on HSkMC is “inactive”. Moreover, in the test on S. aureus RN4220, the growth inhibition call is “inactive”.
In the case of `C[C@@H]1CN([C@H](C)CO)C(=O)Cc2cc(NC(=O)CCC(F)(F)F)ccc2O[C@@H]1CN(C)Cc1ccc(Cl)c(Cl)c1`, the cytotoxicity call in the test on HSkMC is “inactive”. In the test with S. aureus RN4220, the growth inhibition call is “inactive”.
Take `C[C@H](CO)N1C[C@H](C)[C@@H](CN(C)S(=O)(=O)c2cn(C)cn2)Oc2c(NC(=O)Nc3ccc(F)cc3)cccc2C1=O`: the cytotoxicity call in the test on HSkMC was “inactive”. For the same molecule, the growth inhibition call with S. aureus RN4220 was “inactive”.
Take `C[C@H]1[C@H]([Si](C)(C)F)[C@@H](CCO)O[C@]12C(=O)N(Cc1ccccc1)c1ccc(N3C(=O)c4ccccc4Oc4ccccc43)cc12`: the cytotoxicity call with HSkMC was “inactive”. Also, the growth inhibition call with S. aureus RN4220 is “inactive”.
For `O=C(CN1CCOCC1)NCC[C@@H]1CC[C@@H](NC(=O)Nc2ccccc2)[C@H](CO)O1`, in the test with HSkMC, the cytotoxicity call is “inactive”. Further, the growth inhibition call in the test with S. aureus RN4220 was “inactive”.
With `COc1cc2c(cc1OC)CN(C(=O)[C@@H]1[C@H]3C(=O)O[C@H](c4ccccc4)[C@H](c4ccccc4)N3[C@H](c3ccc(O)cc3)[C@@]13C(=O)Nc1ccccc13)CC2`, the cytotoxicity call in the test with HSkMC was “inactive”. The growth inhibition call in the test with S. aureus RN4220 was “inactive”.
Consider `COc1ccc(S(=O)(=O)Nc2ccc3c(c2)C(=O)N([C@@H](C)CO)C[C@H](C)[C@@H](CN(C)Cc2ccc(C(F)(F)F)cc2)OCCCC[C@H](C)O3)cc1`, for which the cytotoxicity call with HSkMC was “inactive”. Further, in the test on S. aureus RN4220, the growth inhibition call was “inactive”.
Consider `Cc1ccc(S(=O)(=O)N(C)C[C@H]2Oc3ccc(NS(C)(=O)=O)cc3CC(=O)N([C@@H](C)CO)C[C@H]2C)cc1`, for which the cytotoxicity call in the test on HSkMC (human skeletal muscle cells) was “inactive”. Moreover, the growth inhibition call in the test on S. aureus RN4220 is “inactive”.
